# This is one part of the list. The list includes weakly bound sequences.
# Molecular target: T1, MBP-FoxP3dN (UniProt Q99JB6)
# T1 sequence: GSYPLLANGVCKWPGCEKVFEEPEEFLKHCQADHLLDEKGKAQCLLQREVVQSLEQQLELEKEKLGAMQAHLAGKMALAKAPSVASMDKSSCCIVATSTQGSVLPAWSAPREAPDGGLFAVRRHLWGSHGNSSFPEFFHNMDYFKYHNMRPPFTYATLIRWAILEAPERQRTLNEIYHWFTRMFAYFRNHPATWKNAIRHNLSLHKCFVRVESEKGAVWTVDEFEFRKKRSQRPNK
# Test: PD-seq (MBP pull-down with sequencing)
# Details: 20 mM Tris-HCl pH 7.5, 100 mM NaCl, 1.5 mM MgCl2, 0.4 uM protein, 0.1 uM dsDNA library, 30 min, room temperature, amylose pull-down; high values mean tight binding; double strand, one strand shown
row,Sequence,binding signal (RPM ratio (pull-down/input))
1,GATGATTGTTCTCCCAGCTGATGAATTCCCTCAATCGAGTAAACAAATTTTCCTAATCTTTCTGTTCAAGCGCCATCTAC,0.217
2,GATGATTGTTCTCCCAGCTGATGAATTTCAGAGTTCGAGTAAACAAATTTTCCTAATCTTTCTGTTCAAGCGCCATCTAC,0.365
3,GATGATTGTTCTCCCAGCTGATGAATTATGTGGATCGAGTAAACAAATTTTCCTAATCTTTCTGTTCAAGCGCCATCTAC,1.68
4,GATGATTGTTCTCCCAGCTGATGAATTTGCTACTTCGAGTAAACAAATTTTCCTAATCTTTCTGTTCAAGCGCCATCTAC,1.05
5,GATGATTGTTCTCCCAGCTGATGAATTATGTAACTCGAGTAAACAAATTTTCCTAATCTTTCTGTTCAAGCGCCATCTAC,3.27
6,GATGATTGTTCTCCCAGCTGATGAATTTATCCGTTCGAGTAAACAAATTTTCCTAATCTTTCTGTTCAAGCGCCATCTAC,0.58
7,GATGATTGTTCTCCCAGCTGATGAATTATGCGGGTCGAGTAAACAAATTTTCCTAATCTTTCTGTTCAAGCGCCATCTAC,1.37
8,GATGATTGTTCTCCCAGCTGATGAATTTATTGTGTCGAGTAAACAAATTTTCCTAATCTTTCTGTTCAAGCGCCATCTAC,6.95
9,GATGATTGTTCTCCCAGCTGATGAATTTTTCACGTCGAGTAAACAAATTTTCCTAATCTTTCTGTTCAAGCGCCATCTAC,0.22
10,GATGATTGTTCTCCCAGCTGATGAATTACGGAATTCGAGTAAACAAATTTTCCTAATCTTTCTGTTCAAGCGCCATCTAC,0.665
11,GATGATTGTTCTCCCAGCTGATGAATTATTTGATTCGAGTAAACAAATTTTCCTAATCTTTCTGTTCAAGCGCCATCTAC,0.569
12,GATGATTGTTCTCCCAGCTGATGAATTGACAAATTCGAGTAAACAAATTTTCCTAATCTTTCTGTTCAAGCGCCATCTAC,0.5
13,GATGATTGTTCTCCCAGCTGATGAATTCAAATAGTCGAGTAAACAAATTTTCCTAATCTTTCTGTTCAAGCGCCATCTAC,0.435
14,GATGATTGTTCTCCCAGCTGATGAATTCTCTACATCGAGTAAACAAATTTTCCTAATCTTTCTGTTCAAGCGCCATCTAC,0.288
15,GATGATTGTTCTCCCAGCTGATGAATTTAGTGTATCGAGTAAACAAATTTTCCTAATCTTTCTGTTCAAGCGCCATCTAC,3.23
16,GATGATTGTTCTCCCAGCTGATGAATTAGGTGGATCGAGTAAACAAATTTTCCTAATCTTTCTGTTCAAGCGCCATCTAC,0.477
17,GATGATTGTTCTCCCAGCTGATGAATTCGTAGTTTCGAGTAAACAAATTTTCCTAATCTTTCTGTTCAAGCGCCATCTAC,0.964
18,GATGATTGTTCTCCCAGCTGATGAATTCAGCAAGTCGAGTAAACAAATTTTCCTAATCTTTCTGTTCAAGCGCCATCTAC,1.26
19,GATGATTGTTCTCCCAGCTGATGAATTGCGTTGTTCGAGTAAACAAATTTTCCTAATCTTTCTGTTCAAGCGCCATCTAC,3.52
20,GATGATTGTTCTCCCAGCTGATGAATTGTGCGGATCGAGTAAACAAATTTTCCTAATCTTTCTGTTCAAGCGCCATCTAC,0.628

row,Sequence,binding signal (RPM ratio (pull-down/input))
1,GATGATTGTTCTCCCAGCTGATGAATTATAAATATCGAGTAAACAAATTTTCCTAATCTTTCTGTTCAAGCGCCATCTAC,1.12
2,GATGATTGTTCTCCCAGCTGATGAATTTACTCGATCGAGTAAACAAATTTTCCTAATCTTTCTGTTCAAGCGCCATCTAC,0.39
3,GATGATTGTTCTCCCAGCTGATGAATTCGCGGGGTCGAGTAAACAAATTTTCCTAATCTTTCTGTTCAAGCGCCATCTAC,0.351
4,GATGATTGTTCTCCCAGCTGATGAATTGTGTATGTCGAGTAAACAAATTTTCCTAATCTTTCTGTTCAAGCGCCATCTAC,5.84
5,GATGATTGTTCTCCCAGCTGATGAATTCTCTGAGTCGAGTAAACAAATTTTCCTAATCTTTCTGTTCAAGCGCCATCTAC,0.184
6,GATGATTGTTCTCCCAGCTGATGAATTGACGCGGTCGAGTAAACAAATTTTCCTAATCTTTCTGTTCAAGCGCCATCTAC,0.6
7,GATGATTGTTCTCCCAGCTGATGAATTATACTCGTCGAGTAAACAAATTTTCCTAATCTTTCTGTTCAAGCGCCATCTAC,0.458
8,GATGATTGTTCTCCCAGCTGATGAATTCATCATGTCGAGTAAACAAATTTTCCTAATCTTTCTGTTCAAGCGCCATCTAC,1.19
9,GATGATTGTTCTCCCAGCTGATGAATTAGTGGAGTCGAGTAAACAAATTTTCCTAATCTTTCTGTTCAAGCGCCATCTAC,0.521
10,GATGATTGTTCTCCCAGCTGATGAATTGGTGCAATCGAGTAAACAAATTTTCCTAATCTTTCTGTTCAAGCGCCATCTAC,3.35
11,GATGATTGTTCTCCCAGCTGATGAATTACTGCGGTCGAGTAAACAAATTTTCCTAATCTTTCTGTTCAAGCGCCATCTAC,0.358
12,GATGATTGTTCTCCCAGCTGATGAATTTTTACATTCGAGTAAACAAATTTTCCTAATCTTTCTGTTCAAGCGCCATCTAC,0.346
13,GATGATTGTTCTCCCAGCTGATGAATTCCCGACCTCGAGTAAACAAATTTTCCTAATCTTTCTGTTCAAGCGCCATCTAC,0.187
14,GATGATTGTTCTCCCAGCTGATGAATTTGACAACTCGAGTAAACAAATTTTCCTAATCTTTCTGTTCAAGCGCCATCTAC,0.508
15,GATGATTGTTCTCCCAGCTGATGAATTCAAACTATCGAGTAAACAAATTTTCCTAATCTTTCTGTTCAAGCGCCATCTAC,0.471
16,GATGATTGTTCTCCCAGCTGATGAATTCCGGTAATCGAGTAAACAAATTTTCCTAATCTTTCTGTTCAAGCGCCATCTAC,0.462
17,GATGATTGTTCTCCCAGCTGATGAATTTGCCTACTCGAGTAAACAAATTTTCCTAATCTTTCTGTTCAAGCGCCATCTAC,1.46
18,GATGATTGTTCTCCCAGCTGATGAATTGTCAAATTCGAGTAAACAAATTTTCCTAATCTTTCTGTTCAAGCGCCATCTAC,0.311
19,GATGATTGTTCTCCCAGCTGATGAATTTCCTATCTCGAGTAAACAAATTTTCCTAATCTTTCTGTTCAAGCGCCATCTAC,0.313
20,GATGATTGTTCTCCCAGCTGATGAATTCTAGAATTCGAGTAAACAAATTTTCCTAATCTTTCTGTTCAAGCGCCATCTAC,0.547

# Reference: article PMC12820563
